# Measured values as given in PubChem BioAssay (Tox21).
# “And” between values parts separate entries of the source, which are not always exact repeats. Identical values can stand only once. Inconclusive means that the source gave no clear call. Such entries were picked first, then a sample of the others. For some of these results: A potency beside an inconclusive call is a rough fit, not a confirmed value. More than one record can exist for a structure, and the calls need not agree. The source made the active and inactive calls. Unless noted, the call rests on the fitted dose curve; in most records, active means well fitted curve in the direction sought with a large enough effect in the repeat runs; inconclusive means weak or mixed curves; inactive means no such curve, though single readings can be large; an effect the other way counts as inactive or inconclusive.
# Experiments:
# [1] = qHTS assay to identify small molecule antagonists of the retinoid acid receptor (RAR) signaling pathway - cell viability counter screen (AID 1159551); further: nearly all actives have a fitted effect of over 35% in size
# Summary of the method: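 ATP-based viability, C3RL4 cells, 6 h at 37 C with 1 uM final retinol co-added after compound; luminescence read 30 min post CellTiter-Glo, RT.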
# [2] = qHTS assay to identify small molecule agonists of the estrogen related receptor (ERR) signaling pathway (AID 1224820); conditions: ERR reporter cell line, luciferase agonist mode
# Summary of the method: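 An ERR cell line provided by NTP was seeded at 2,000 cells per well and allowed to settle for 6 h before compounds in DMSO were added. After 18 h at 37 C, luciferase activity was measured by One-Glo luminescence.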
# [3] = qHTS assay to identify small molecule agonists of the estrogen related receptor signaling pathway with the pleiotropic PPARgamma coactivator (PGC) (AID 1224823)
# Summary of the method: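 Compounds dissolved in DMSO are added by pin tool to PGC/ERR cells that have settled for 6 h, and incubation continues 18 h at 37 C. Reporter output is measured as One-Glo luminescence.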
# [4] = qHTS assay to identify small molecule agonists of the constitutive androstane receptor (CAR) signaling pathway - cell viability counter screen (AID 1224836); further: nearly all actives have a fitted effect of over 45% in size
# Summary of the method: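 Using CellTiter-Fluor, viability of HepG2 cells harbouring hCAR and CYP2B6-2.2kb was measured following 23 h incubation with a 15-concentration compound series plus PK11195 (0.75 uM final).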
# [5] = qHTS assay to identify small molecule antagonists of the estrogen related receptor signaling pathway with the pleiotropic PPARgamma coactivator (PGC) from Tox21 10K library (AID 1224841; call rule not given here; further: actives are mostly falling curves and most rising ones were filed inactive; nearly all actives have a fitted effect of over 50% in size)
# Summary of the method: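 Cells stably carrying the PGC/ERR reporter, seeded at 2,000 per well, received pin-transferred compounds 6 h post-plating. Exposure lasted 18 h at 37 C. Signal: One-Glo luminescence.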
# [6] = molecular target: Thyrotropin receptor (Homo sapiens) (UniProt P16473); test: qHTS assay to identify small molecule agonists of the thyroid stimulating hormone receptor (TSHR) signaling pathway (AID 1224843; calls by dose curve; further: nearly all actives have a fitted effect of over 45% in size; on activation: on the % scale 0 is the no-effect control and ±100 the full control effect); conditions: TSHR-HEK293 cells, cAMP HTRF, agonist mode, 30 min; activation: at 92.4 µM (top of the series) unless noted
# UniProt P16473, sequence (P16473 whole entry, looked up): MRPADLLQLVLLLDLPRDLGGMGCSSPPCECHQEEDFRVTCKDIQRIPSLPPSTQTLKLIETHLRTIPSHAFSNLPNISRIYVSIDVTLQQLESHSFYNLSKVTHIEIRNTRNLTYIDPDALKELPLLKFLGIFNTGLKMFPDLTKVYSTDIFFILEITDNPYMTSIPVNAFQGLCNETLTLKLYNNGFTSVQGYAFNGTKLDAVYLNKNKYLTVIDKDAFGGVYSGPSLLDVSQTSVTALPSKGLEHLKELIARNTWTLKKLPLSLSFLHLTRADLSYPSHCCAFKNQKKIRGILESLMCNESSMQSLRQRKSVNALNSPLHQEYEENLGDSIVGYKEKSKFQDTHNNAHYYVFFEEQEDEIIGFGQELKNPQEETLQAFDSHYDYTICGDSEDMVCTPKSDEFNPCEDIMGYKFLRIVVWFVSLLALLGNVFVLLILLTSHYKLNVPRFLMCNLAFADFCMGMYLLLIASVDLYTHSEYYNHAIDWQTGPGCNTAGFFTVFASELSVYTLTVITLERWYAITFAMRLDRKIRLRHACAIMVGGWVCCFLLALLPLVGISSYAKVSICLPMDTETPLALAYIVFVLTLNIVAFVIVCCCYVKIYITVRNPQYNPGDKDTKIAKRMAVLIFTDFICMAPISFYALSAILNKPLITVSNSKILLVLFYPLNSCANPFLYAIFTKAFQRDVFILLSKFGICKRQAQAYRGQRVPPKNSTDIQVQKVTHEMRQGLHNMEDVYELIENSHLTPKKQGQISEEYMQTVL
# Summary of the method: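 Agonist-mode screen: TSHR HEK293 cells received test chemicals for half an hour at room temperature, then HTRF cAMP detection reagents for one hour prior to fluorescence measurement. Each chemical ran as a 15-concentration series, triplicated.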
# [7] = qHTS assay to identify small molecule agonists of the retinoic acid receptor (RAR) signaling pathway (AID 1159553); conditions: C3RL4 RARE luciferase reporter, agonist, 6 h; activation: at 73.3 µM (top of the series) unless noted; on activation: on the % scale 0 is the no-effect control and ±100 the full control effect
# Summary of the method: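 Quantitative high-throughput format: the Tox21 10K library was tested on C3RL4 RARE-luciferase cells for 6 hr at 37 C and 5% CO2, with luminescence measured after a 30 min room-temperature reagent step.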
# [8] = qHTS assay to identify small molecule antagonists of the constitutive androstane receptor (CAR) signaling pathway - cell viability counter screen (AID 1224837); further: nearly all actives have a fitted effect of over 45% in size
# Summary of the method: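 Cells are seeded, rested 4 hr at 37 C/5% CO2, dosed with compound (15-point series) and 50 nM CITCO, incubated a further 23 hr, and then CellTiter-Fluor reagent is added before fluorescence is read. The line is HepG2 with stable hCAR and CYP2B6-2.2kb.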
# [9] = qHTS assay to identify small molecule agonists of the hypoxia (HIF-1) signaling pathway - cell viability counter screen (AID 1224844; calls by dose curve; further: nearly all actives have a fitted effect of over 50% in size)
# Summary of the method: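 Viability counter screen: HRE-bla ME-180 cells plated 5 hrs before compound addition, treated 17 hrs at 37C and 5% CO2, then CellTiter-Glo added after the FRET reporter read; luminescence after 30 min.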
# [10] = qHTS assay to identify small molecule antagonists of the estrogen related receptor (ERR) signaling pathway from Tox21 library - cell viability counter screen (AID 1224834); further: nearly all actives have a fitted effect of over 30% in size
# Summary of the method: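 Compounds in DMSO were pinned onto ERR cells that had been incubated for 6 h, and the plates were held at 37 C for 17.5 h. CellTiter-Fluor reagent was then added and fluorescence was measured after 30 min.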
# [11] = molecular target: Luciferin 4-monooxygenase (Photinus pyralis) (UniProt P08659); test: qHTS assay to identify small molecule inhibitors of firefly luciferase (AID 1224835); further: nearly all actives have a fitted effect of over 25% in size
# UniProt P08659, sequence (P08659 whole entry, looked up): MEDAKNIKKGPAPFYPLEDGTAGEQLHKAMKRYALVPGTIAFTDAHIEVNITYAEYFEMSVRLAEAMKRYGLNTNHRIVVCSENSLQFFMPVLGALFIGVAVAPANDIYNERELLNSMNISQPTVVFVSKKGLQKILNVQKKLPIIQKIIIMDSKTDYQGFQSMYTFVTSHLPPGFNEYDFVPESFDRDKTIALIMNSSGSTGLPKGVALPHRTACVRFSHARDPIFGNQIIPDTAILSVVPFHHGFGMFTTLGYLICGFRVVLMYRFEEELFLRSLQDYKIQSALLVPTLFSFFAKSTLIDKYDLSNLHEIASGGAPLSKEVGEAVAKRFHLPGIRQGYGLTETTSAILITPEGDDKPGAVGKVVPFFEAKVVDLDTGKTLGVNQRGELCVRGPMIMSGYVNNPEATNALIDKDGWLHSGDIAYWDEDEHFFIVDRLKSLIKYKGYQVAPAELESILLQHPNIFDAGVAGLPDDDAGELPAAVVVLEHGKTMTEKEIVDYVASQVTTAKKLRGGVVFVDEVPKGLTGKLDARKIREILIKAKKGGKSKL
# Summary of the method: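 Biochemical qHTS: compounds run as interplate titrations against purified firefly enzyme, with D-luciferin and ATP each at its KM concentration. Light output recorded by CCD imaging.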
# [12] = molecular target: Nuclear receptor subfamily 1 group I member 3 (Homo sapiens) (UniProt Q14994); test: qHTS assay to identify small molecule agonists of the constitutive androstane receptor (CAR) signaling pathway (AID 1224839); further: nearly all actives have a fitted effect of over 15% in size;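 on activation: HepG2 cells stably carrying human CAR and a CYP2B6 luciferase reporter; on the % scale 0 is the no-effect control and ±100 the full control effect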
# UniProt Q14994, sequence (Q14994 whole entry, looked up): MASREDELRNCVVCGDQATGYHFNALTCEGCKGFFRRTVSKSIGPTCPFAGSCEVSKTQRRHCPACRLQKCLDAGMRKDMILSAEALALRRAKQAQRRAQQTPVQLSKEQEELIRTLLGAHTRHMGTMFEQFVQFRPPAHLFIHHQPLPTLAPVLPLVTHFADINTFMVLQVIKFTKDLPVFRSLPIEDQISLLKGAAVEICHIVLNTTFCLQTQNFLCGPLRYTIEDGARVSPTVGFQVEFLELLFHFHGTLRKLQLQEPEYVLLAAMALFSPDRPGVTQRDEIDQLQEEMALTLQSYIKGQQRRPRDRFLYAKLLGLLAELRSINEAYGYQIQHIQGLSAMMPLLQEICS
# Summary of the method: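 Double-stable HepG2 cells (hCAR, CYP2B6-2.2kb) seeded 4 h before compound addition. Exposure 24 h with 0.75 uM PK11195 final. Luciferase detected by ONE-Glo.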
# [13] = molecular target: Nuclear receptor subfamily 1 group I member 3 (Homo sapiens) (UniProt Q14994); test: qHTS assay to identify small molecule antagonists of the constitutive androstane receptor (CAR) signaling pathway (AID 1224838);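 further: HepG2 cells stably expressing hCAR with CYP2B6 luciferase reporter stimulated by CITCO; nearly all actives have a fitted effect of over 40% in size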
# Summary of the method: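 Luminescence from a CYP2B6-2.2kb promoter reporter in hCAR-expressing HepG2 cells reflects CAR signaling. Cells received compounds at 15 concentrations and 50 nM CITCO (final), then incubated 24 h at 37 C/5% CO2.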
# [14] = qHTS assay to identify small molecule antagonists of the estrogen related receptor signaling pathway with the pleiotropic PPARgamma coactivator (PGC) from Tox21 10K library - cell viability counter screen (AID 1224840; active means well fitted cell-killing curve with a large enough effect in the repeat runs, not every such curve was filed as active; inconclusive means weak or mixed curves, or effect the other way; inactive means no such curve, though single readings can be large or run the other way; further: nearly all actives have a fitted effect of over 40% in size)
# Summary of the method: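 Cell viability is measured by CellTiter-Fluor fluorescence in PGC/ERR cells that receive compounds after a 6-hour attachment period and are then incubated 17.5 hours at 37 C.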
# [15] = qHTS assay to identify small molecule antagonists of the estrogen related receptor signaling pathway with the pleiotropic PPARgamma coactivator (PGC) cell viability counter screen (AID 1224822;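 further: viability read after 17.5 h compound exposure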)
# Summary of the method: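 Cytotoxicity in the PGC/ERR cell line is assessed with CellTiter-Fluor, read as fluorescence intensity 30 min after reagent addition, following 17.5 h compound treatment at 37 C.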
# Potency means the concentration at half of the fitted maximal effect; tags describe the fitted curve by direction and shape or compound fluorescence and quenching.
structure (smiles),measurement,setting,value
NC(=Nc1ccccc1)Nc1ccccc1,Potency,[1],"inconclusive: 34.4 µM [rising, partial curve, poor fit]"
same,Potency,[2],inconclusive: 23 µM [activator]
same,Potency,[3],inconclusive: 29.5 µM [activator]
same,Potency,[4],"inconclusive: 18.8 µM [cytotoxic, partial curve]"
same,Potency,[5],inactive
same,Potency,[6],"inconclusive: 9.69 µM [activator, full curve, poor fit]"
CCN(Cc1cccc(S(=O)(=O)O)c1)c1ccc(C(=C2C=CC(=[N+](CC)Cc3cccc(S(=O)(=O)O)c3)C=C2)c2ccc(O)cc2S(=O)(=O)[O-])cc1,Potency,[1],active: 14.8 µM
same,Potency,[7],"inconclusive: 11.7 µM [inhibitor, partial curve]"
same,Potency,[8],active: 29.5 µM
same,Potency,[5],active: 16.6 µM
same,Potency,[6],"inconclusive: 5.88 µM [falling, full curve]"
same,Potency,[9],"inconclusive: 33.4 µM [cytotoxic, partial curve]"
O=C1OC(c2ccc(O)cc2)(c2ccc(O)cc2)c2ccccc21,Potency,[1],"inconclusive: 30.4 µM [rising, partial curve]"
same,Potency,[7],inconclusive: 68.1 µM [inhibitor] and inactive
same,Potency,[10],"inconclusive: 54.1 µM [cytotoxic] and inconclusive: 68.6 µM [cytotoxic, single point]"
same,Potency,[11],"inconclusive: 44.5 µM [inhibitor, partial curve] and inactive"
same,Potency,[4],inactive
same,Potency,[12],active: 60.7 µM and active: 8.63 µM and active: 4.73 µM
same,Potency,[9],"inconclusive: 54.6 µM [cytotoxic, single point]"
CCCCCCCCCCCC[N+](C)(C)CCCCCCCCCCCC,Potency,[1],active: 43.3 µM
same,Potency,[7],"inconclusive: 19.3 µM [inhibitor, full curve]"
same,Potency,[10],active: 27.3 µM
same,Potency,[8],active: 24.3 µM
same,Potency,[12],inactive
same,Potency,[6],active: 24.3 µM
same,Potency,[9],active: 21.9 µM
NC(=NCCCCCCN=C(N)/N=C(\N)Nc1ccc(Cl)cc1)/N=C(\N)Nc1ccc(Cl)cc1,Potency,[1],inconclusive: 68 µM [cytotoxic] [middle of 4 runs]
same,Potency,[10],"inconclusive: 33.5 µM [cytotoxic, partial curve, poor fit]"
same,Potency,[4],"inconclusive: 68 µM [cytotoxic, single point] and inconclusive: 60.9 µM [cytotoxic, single point]"
same,Potency,[8],"inconclusive: 68 µM [cytotoxic, single point] and inconclusive: 60.9 µM [cytotoxic, single point]"
same,Potency,[13],"inconclusive: 68 µM [inhibitor, single point] and inconclusive: 60.9 µM [inhibitor] and inconclusive: 62.2 µM [inhibitor, single point]"
same,Potency,[14],active: 49.4 µM [middle of 5 runs]
C/C=C/C=C/COC(=O)C(C)C,Potency,[1],"inconclusive: 77 µM [rising, partial curve, poor fit]"
same,Potency,[7],"inconclusive: 68.6 µM [activator, partial curve, poor fit]"
same,Potency,[10],"inconclusive: 68.6 µM [cytotoxic, single point]"
same,Potency,[11],"inconclusive: 79.6 µM [inhibitor, single point]"
same,Potency,[8],"inconclusive: 68.6 µM [cytotoxic, partial curve, poor fit]"
same,Potency,[6],"inconclusive: 54.5 µM [activator, partial curve]"
same,Potency,[9],"inconclusive: 43.6 µM [cytotoxic, partial curve]"
CCN1/C(=C/C=C/c2sc3ccccc3[n+]2CC)Sc2ccccc21,Potency,[1],active: 14.6 µM
same,Potency,[7],"inconclusive: 4.11 µM [inhibitor, partial curve]"
same,Potency,[13],active: 14.6 µM
same,activation,[6],inactive: 1.82% [at 19 µM]
CN1CCN(C2=Nc3cc(Cl)ccc3Nc3ccccc32)CC1,Potency,[1],inactive
same,Potency,[15],"inconclusive: 26.6 µM [cytotoxic, partial curve, poor fit]"
same,Potency,[4],"inconclusive: 15 µM [cytotoxic, single point]"
same,Potency,[8],"inconclusive: 8.41 µM [cytotoxic, partial curve]"
same,Potency,[12],"inconclusive: 13.3 µM [activator, single point]"
same,Potency,[14],"inconclusive: 26.6 µM [cytotoxic, partial curve]"
